Reference: PMC7694937
Results are given in words; binding and its absence hold for the method and conditions named. In cells and extracts the contact can be indirect. Some results given as binding are weak or reduced against the parent protein; the word gives no strength. For some assays here: Where a sequence is shown, tags or fusion partners need not be part of it.

Sequences of proteins named here, by UniProt entry; tags and fusion partners are left off.
UniProt Q9ULZ3: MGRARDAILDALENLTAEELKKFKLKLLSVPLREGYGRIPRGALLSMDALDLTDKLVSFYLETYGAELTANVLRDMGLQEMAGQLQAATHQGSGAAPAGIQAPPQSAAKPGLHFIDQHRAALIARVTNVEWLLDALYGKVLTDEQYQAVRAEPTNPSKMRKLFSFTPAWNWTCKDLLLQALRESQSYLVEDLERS
UniProt P49023: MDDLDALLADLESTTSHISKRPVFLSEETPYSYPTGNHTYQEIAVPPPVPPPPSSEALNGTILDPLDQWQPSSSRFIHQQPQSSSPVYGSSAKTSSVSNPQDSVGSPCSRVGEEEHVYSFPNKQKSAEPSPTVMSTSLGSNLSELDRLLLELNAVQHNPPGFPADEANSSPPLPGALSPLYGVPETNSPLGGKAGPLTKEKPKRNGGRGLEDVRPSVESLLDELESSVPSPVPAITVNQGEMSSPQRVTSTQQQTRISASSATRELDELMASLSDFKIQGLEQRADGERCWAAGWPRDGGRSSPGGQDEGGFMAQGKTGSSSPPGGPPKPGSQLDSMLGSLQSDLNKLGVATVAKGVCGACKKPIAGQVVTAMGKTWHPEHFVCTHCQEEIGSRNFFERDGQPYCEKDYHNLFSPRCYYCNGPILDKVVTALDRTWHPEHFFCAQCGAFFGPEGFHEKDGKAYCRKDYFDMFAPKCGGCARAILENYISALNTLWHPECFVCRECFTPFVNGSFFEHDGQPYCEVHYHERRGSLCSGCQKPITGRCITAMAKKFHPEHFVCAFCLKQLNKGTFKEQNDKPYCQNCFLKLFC

Tests used:
Assay in all cases: co-IP; HEK293T cells co-transfected with Flag- and HA-tagged plasmids; lysis in 50 mM Tris-HCl pH 7.5, 300 mM NaCl, 1% Triton-X, 5 mM EDTA, 10% glycerol; IP with anti-Flag antibody and Protein-G Sepharose, immunoblot with anti-HA and anti-Flag; in some panels cells treated with DMSO or ATP (5 mM) for 2 h; Fig. 6d-g shown as pairs of IPs whose antibodies the legend does not name
[1] = target: T1, Flag-USP13(301–624) (human) (UniProt Q92995)
T1 sequence: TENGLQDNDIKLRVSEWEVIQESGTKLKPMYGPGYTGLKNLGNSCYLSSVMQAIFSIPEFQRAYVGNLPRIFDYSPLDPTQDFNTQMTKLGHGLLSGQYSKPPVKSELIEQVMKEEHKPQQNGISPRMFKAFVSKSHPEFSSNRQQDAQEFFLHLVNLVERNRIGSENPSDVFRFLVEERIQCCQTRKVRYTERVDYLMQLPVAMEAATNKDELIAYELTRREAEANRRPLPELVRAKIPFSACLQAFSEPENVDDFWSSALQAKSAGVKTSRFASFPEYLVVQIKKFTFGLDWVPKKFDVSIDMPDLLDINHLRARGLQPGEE

Flag-P2X7R(32–595) = target: T2, Flag-P2X7R(32–595) (UniProt Q99572)
T2 sequence: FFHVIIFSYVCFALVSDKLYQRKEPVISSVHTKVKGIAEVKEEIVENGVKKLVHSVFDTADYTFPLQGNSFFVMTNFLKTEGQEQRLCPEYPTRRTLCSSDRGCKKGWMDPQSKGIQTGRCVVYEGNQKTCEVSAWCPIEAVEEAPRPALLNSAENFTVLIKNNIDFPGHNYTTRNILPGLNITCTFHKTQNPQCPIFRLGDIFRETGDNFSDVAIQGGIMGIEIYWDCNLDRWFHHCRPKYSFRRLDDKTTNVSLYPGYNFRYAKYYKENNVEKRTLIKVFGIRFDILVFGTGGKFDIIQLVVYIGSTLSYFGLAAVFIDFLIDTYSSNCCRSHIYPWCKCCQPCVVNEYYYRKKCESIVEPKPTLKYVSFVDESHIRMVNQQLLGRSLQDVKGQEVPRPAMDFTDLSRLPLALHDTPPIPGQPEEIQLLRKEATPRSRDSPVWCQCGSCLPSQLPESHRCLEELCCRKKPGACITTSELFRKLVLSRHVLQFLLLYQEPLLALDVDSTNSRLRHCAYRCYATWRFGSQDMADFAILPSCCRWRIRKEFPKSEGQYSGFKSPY

Flag-ASC (human) = Flag-ASC (human) (UniProt Q9ULZ3)
Flag-USP13 (human) = target: T3, Flag-USP13 (human) (UniProt Q92995)
T3 sequence: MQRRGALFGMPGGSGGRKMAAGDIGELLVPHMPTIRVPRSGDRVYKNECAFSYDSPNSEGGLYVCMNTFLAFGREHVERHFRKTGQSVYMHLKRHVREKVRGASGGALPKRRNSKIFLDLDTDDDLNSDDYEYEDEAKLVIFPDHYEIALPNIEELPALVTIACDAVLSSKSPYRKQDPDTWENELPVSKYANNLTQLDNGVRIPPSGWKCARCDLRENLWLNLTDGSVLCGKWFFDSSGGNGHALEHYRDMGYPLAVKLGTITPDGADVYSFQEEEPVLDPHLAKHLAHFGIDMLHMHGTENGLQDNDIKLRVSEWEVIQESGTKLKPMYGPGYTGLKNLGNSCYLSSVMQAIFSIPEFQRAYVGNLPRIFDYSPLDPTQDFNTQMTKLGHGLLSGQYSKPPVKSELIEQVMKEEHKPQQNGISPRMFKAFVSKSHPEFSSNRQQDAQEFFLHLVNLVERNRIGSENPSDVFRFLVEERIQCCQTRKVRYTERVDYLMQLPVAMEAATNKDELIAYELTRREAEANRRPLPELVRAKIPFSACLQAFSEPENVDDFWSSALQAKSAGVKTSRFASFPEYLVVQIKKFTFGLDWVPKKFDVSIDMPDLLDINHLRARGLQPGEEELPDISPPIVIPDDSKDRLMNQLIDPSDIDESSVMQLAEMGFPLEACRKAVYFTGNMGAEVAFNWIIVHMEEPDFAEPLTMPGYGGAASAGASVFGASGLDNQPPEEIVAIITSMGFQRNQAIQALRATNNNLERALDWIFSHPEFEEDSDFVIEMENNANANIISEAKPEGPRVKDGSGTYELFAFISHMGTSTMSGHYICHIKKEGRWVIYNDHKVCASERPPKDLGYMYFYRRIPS

[2] = target: T4, Flag-USP13(625–863) (human) (UniProt Q92995)
T4 sequence: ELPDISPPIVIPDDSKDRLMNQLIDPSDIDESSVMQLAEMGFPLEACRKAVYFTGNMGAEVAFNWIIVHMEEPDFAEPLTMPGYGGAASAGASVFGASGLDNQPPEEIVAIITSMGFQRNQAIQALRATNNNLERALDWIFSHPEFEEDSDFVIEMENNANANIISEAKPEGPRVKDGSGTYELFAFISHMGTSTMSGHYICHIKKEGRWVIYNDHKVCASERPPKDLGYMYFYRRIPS

In the case of HA-Paxillin (from UniProt P49023 1-591), the binding [1] is reported as “no binding”, the binding (Flag-P2X7R(32–595)) is reported as “no binding” and the binding (Flag-ASC (human)) is reported as “no binding”. The binding (Flag-USP13 (human)) was “binds” and the binding [2] was “no binding”.
